In PubChem BioAssay AID1347073 (National Center for Advancing Translational Sciences (NCATS), 2019):
Among all 45,000 compounds or so, about 200 (0.44%) were called active. About 7% were inconclusive and are not listed. Calls come from the whole dose curve; as a rule, active = well fitted activation curve with a large enough effect; inconclusive = small, poorly fitted or top-dose-only effect; inactive = no such curve, though single readings can be large or run the other way. The list shows a part of the results.

Assay: qHTS of TDP-43 Inhibitors: NCGC Sytravon Library Screen; note: 0% is about no effect; nearly all actives have a fitted effect of over 55% in size
Settings: yeast TDP-43 toxicity rescue, BacTiter-Glo growth, 24 h; series mostly up to 46.1 µM; growth rescue (activation): at the top concentration
Procedure, shortened: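 TDP-43-expressing yeast, pregrown in raffinose, seeded at OD600 0.02 in galactose medium with compound for 24 hr at 30 deg C. Growth read by BacTiter-Glo luminescence, so rescue of toxicity appears as activation.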

| SMILES | growth rescue (activation) | Potency |
| --- | --- | --- |
| COc1cc(CN(C(=O)COc2ccc(C)c(C)c2)c2ccccn2)cc(OC)c1OC | inactive: 13.3% | – |
| Cc1cc(OCC(=O)N(Cc2ccco2)C2CCS(=O)(=O)C2)ccc1Cl (stereo not given) | inactive: 2.75% | – |
| Cc1oc(-c2cccc(F)c2)nc1CN(Cc1ccccc1)C[C@@H]1CCC(=O)N1 | inactive: -1.06% | – |
| O=c1c2[nH]c3cccc(Cl)c3c2ncn1CC1CCCO1 (stereo not given) | inactive: -5.66% | – |
| CCCN(CCC)CCNC(=O)c1cc2c(-c3ccccc3F)nn(C)c2s1 | inactive: -19.7% | – |
| O=C(Cn1cccc1C(=O)c1ccccc1)NCc1ccc(F)cc1 | inactive: 7.35% | – |
| Cc1cc(/C=C(\C#N)C(=O)NC2CC2)c(C)[nH]1 | inactive: 2.99% | – |
| CC1=C/C(=N\Nc2ccccc2[N+](=O)[O-])CC(C)(C)C1 | inactive: -4.06% | – |
| Cc1ccc(N(CC(=O)NCc2ccccn2)S(=O)(=O)c2ccccc2)cc1Cl | inactive: 16.2% | – |
| O=C(OCc1ccc([N+](=O)[O-])cc1)c1cc(=O)c2ccccc2o1 | inactive: -15.9% | – |
| CC(C)(C)C(=O)CSc1ncnc2c1cnn2Cc1ccccc1 | inactive: 2.31% | – |
| O=C(CSc1n[nH]c(-c2cccnc2)n1)Nc1ccccc1[N+](=O)[O-] | inactive: -0.651% | – |
| CCOC(=O)C1=C(c2ccccc2)NC(=O)NC1c1cc(OC)c(OC)cc1OC (stereo not given) | inactive: -1.92% | – |
| CC(=O)c1c(C)[nH]c(C(=O)OCc2ccc([N+](=O)[O-])cc2)c1C | inactive: -13.2% | – |
| CC(C)Cn1c(N)c(C(=O)COC(=O)CC23CC4CC(CC(C4)C2)C3)c(=O)n(C)c1=O | inactive: 17.2% | – |
| Cc1cccc(C)c1OCCNC(=O)C(=O)NCc1ccco1 | inactive: 7.75% | – |
| Cc1ccc(/C=N/n2c(-c3ccncc3)n[nH]c2=S)o1 | inactive: 2.39% | – |
| Cc1nc2sc(-c3ccccc3)nn2c(=O)c1Br | inactive: 10.6% | – |
| CC(=O)NCCc1nc2ccccc2n1Cc1cc(C)ccc1C | inactive: 3.52% | – |
| O=C(CCN1C(=O)c2ccccc2S1(=O)=O)Nc1ccc(F)cc1F | inactive: -4.99% | – |
| COc1cc(-c2nnco2)cc(OC)c1OC | inactive: 3.3% | – |
| CCCN1C(=O)c2cccc3c(N4CCCCC4)ccc(c23)C1=O | inactive: -2.83% | – |
| COC(=O)c1ccccc1NC(=O)CN1CCN(c2ccccn2)CC1 | inactive: 4.58% | – |
| S=C(NC1CC1)N1CCc2ccccc2C1 | inactive: -11.3% | – |
| O=C(NC(=S)NC1C2CC3CC(C2)CC1C3)C12CC3CC(CC(C3)C1)C2 (stereo not given) | inactive: -6.13% | – |
| O=c1oc2c(CN3CCN(CCO)CC3)c(O)ccc2cc1-c1ccccn1 | inactive: -0.165% | – |
| O=C(O)c1cc(-c2cccc3ccccc23)nc2ccccc12 | inactive: 3.11% | – |

| SMILES | growth rescue (activation) | Potency |
| --- | --- | --- |
| Cc1ccc(NC(=O)CNNC(=O)c2cccc([N+](=O)[O-])c2)cc1[N+](=O)[O-] | inactive: 2.74% | – |
| NC(=O)CC1Nc2cccc3cccc(c23)NC1=O (stereo not given) | inactive: 6.63% | – |
| COc1ccc(NC(=O)c2cccc(N3C(=O)C4CC=C(C)CC4C3=O)c2)c(OC)c1 (stereo not given) | inactive: 8.91% | – |
| CC(=O)Nc1cccc(/C(C)=N/NS(=O)(=O)c2ccccc2)c1 | inactive: -1.04% | – |
| CCCCN(C)S(=O)(=O)c1cc2c(cc1Br)CCN2C(=O)C1CC1 | inactive: -31.9% | – |
| Cc1ccc(N2C(=O)Cc3ccccc3C2=O)cc1 | inactive: 17% | – |
| CN(C)S(=O)(=O)c1cccc(NC(=O)CNCC2CCCCC2)c1 | inactive: 3.64% | – |
| O=C(Nc1nnc([C@@H]2O[C@H](CO)[C@@H](O)[C@H]2O)s1)Nc1ccccc1C(F)(F)F | inactive: 0.321% | – |
| Cc1cc(C(=O)COC(=O)c2ccc(NC(=O)CC#N)cc2)c(C)n1-c1ccc(OC(F)F)cc1 | inactive: -3.78% | – |
| O=C(CC12CC3CC(CC(C3)C1)C2)NCC(=O)OCc1cc(=O)oc2ccc3ccccc3c12 | inactive: 2.73% | – |
| O=C(CCCOc1ccc(Cl)cc1Cl)N/N=C/c1ccc(Cl)cc1 | inactive: 28.9% | – |
| C=C(C)c1cccc(C(C)(C)NC(=O)Nc2ccc(C(N)=O)cc2)c1 | inactive: -15.9% | – |
| O=C(NCc1cccnc1)NC1CCCN1S(=O)(=O)c1ccc(Cl)cc1 (stereo not given) | inactive: 13.5% | – |
| COc1ccc(C(=O)NCC2CCCCC2)cc1S(=O)(=O)N1CCOCC1 | inactive: 2.06% | – |
| CCC(=O)N1CCC1(C)C(=O)Nc1ccc2scnc2c1 (stereo not given) | inactive: 8.32% | – |
| CCCOC(=O)/C(=C\C=C\c1ccccc1)NC(=O)c1ccccc1 | inactive: -2.07% | – |
| Cc1cccn2cc(-c3ccc(S(=O)(=O)N4CCCCC4)cc3)nc12 | inactive: 10.4% | – |
| CC1(C)CC(N2CN(C3CCCCC3)CC2=O)CC(C)(C)N1 | inactive: -10.5% | – |
| C/C(=N\NS(=O)(=O)c1ccc(C)c([N+](=O)[O-])c1)c1cccs1 | inactive: 17.8% | – |
| Cc1cc(C(=O)N/N=C/c2cc(N=Nc3ccccc3)ccc2O)n[nH]1 | inactive: 3.53% | – |
| CCOc1cc(/C=N/Nc2nc(Nc3ccccc3)nc(N3CCCCC3)n2)ccc1OCC(=O)O | inactive: 11.1% | – |
| O=S(=O)(NCCN1CCN(S(=O)(=O)c2ccccc2F)CC1)c1ccccc1F | inactive: 16.3% | – |
| CCCC(=O)C1=C(N2CCCC2)CC(C)(C)C(C(=O)OC)C1=O (stereo not given) | inactive: 5.58% | – |
| O=C(COc1ccc(Cl)cc1)N1CCCCCCC1 | inactive: 26.4% | – |
| COc1ccc(Nc2nc(-c3ccncc3)nc3ccccc23)cc1 | inactive: 11.2% | – |
| CCOc1ccc(NC(=O)CS(=O)CC(=O)Nc2cccnc2)cc1 (stereo not given) | inactive: 4.53% | – |
| CN(C)S(=O)(=O)c1ccc(N2CCCC2)c(C(=O)Nc2ccccc2OC(F)F)c1 | inactive: 15.4% | – |

| SMILES | growth rescue (activation) | Potency |
| --- | --- | --- |
| CCCn1c(SCC(=O)NC(C)C)nc2sc3c(c2c1=O)CCC3 | inactive: 10.8% | – |
| Cc1cc(NS(=O)(=O)c2ccc(NC(=O)CCCOc3ccccc3C)cc2)no1 | inactive: -5.72% | – |
| COc1ccc(NS(=O)(=O)c2cccc(NC(=O)COc3ccccc3[N+](=O)[O-])c2)cc1 | inactive: -9.26% | – |
| COc1cc(Br)cc(/C=N/N(CCO)C2=NS(=O)(=O)c3ccccc32)c1OC | inactive: 0.602% | – |
| CCOc1ccc(NC(=S)N(CCOC)C(C)c2cccnc2)cc1 (stereo not given) | inactive: -22.4% | – |
| COc1ccc(C(C(=O)NCC2CCCO2)N(C(=O)Cn2nnc3ccccc32)c2ccc(NC(C)=O)cc2)cc1OC (stereo not given) | inactive: 14.2% | – |
| Cc1cc(CN(C)Cc2c(C(=O)N3CCCCCCC3)nc3ccc(Cl)cn23)n[nH]1 | inactive: -14.4% | – |
| Cc1cccc(NC(=S)NCCCN2CCOCC2)c1 | inactive: -12.3% | – |
| COc1ccc(N=Cc2cc3c(cc2O)OC(N)=C(C#N)C3c2ccccc2)cc1 (stereo not given) | inactive: -7.96% | – |
| Cc1noc(C)c1S(=O)(=O)N1CCC(C(=O)NCCCN2CC(C)CC(C)C2)CC1 (stereo not given) | inactive: -12.9% | – |
| O=C(Nc1ccc(OC(F)(F)F)cc1)C1CC(c2ccc(F)cc2)=NO1 (stereo not given) | inactive: -3.79% | – |
| CC(=O)c1ccc(Nc2nc(C(N)c3ccccc3Cl)cs2)cc1 (stereo not given) | inactive: -12.5% | – |
| Cc1cc(/C=C(\C#N)C(=O)NC2CCCCCC2)c(C)n1C | inactive: -0.301% | – |
| CCCCN(C(=O)C1CCN(C(=O)c2ccccc2C)CC1)c1c(N)n(CCC)c(=O)[nH]c1=O | inactive: -15.1% | – |
| O=C(CSc1nnnn1C1CC2C=CC1C2)Nc1ccc(C(=O)O)cc1 (stereo not given) | inactive: -11.7% | – |
| CCC1N=C(SC)NC(C)=C1C(=O)c1ccccc1 (stereo not given) | inactive: -11.1% | – |
| O=c1nc(N/N=C/c2c[nH]c3ccccc23)cn[nH]1 | inactive: 25.5% | – |
| Cc1ccc(S(=O)(=O)NC2CC(C)(C)NC(C)(C)C2)cc1C | inactive: 9.86% | – |
| O=C(CCN1C(=O)/C(=C/c2ccccc2)SC1=S)N1CCCCCC1 | inactive: 23.9% | – |
| COc1ccc(Nc2nc(-c3ccccc3)nc3ccccc23)c(OC)c1 | inactive: 9.16% | – |
| COc1cccc(CN(C)C(=O)c2cccc(OC3CCN(C4CCCC4)CC3)c2)c1 | inactive: 10.9% | – |
| O=C(Nc1ccccc1F)c1c[nH]c(=O)[nH]c1=O | inactive: 8.44% | – |
| CC1(Oc2ccc(Cl)cc2)CCN(Cc2ccc(OC(F)(F)F)cc2)C1 (stereo not given) | inactive: 18.5% | – |
| COc1ccc(C(=O)COC(=O)c2cc(=O)c3ccccc3o2)cc1 | inactive: -31.8% | – |
| CCn1c(SCC(=O)NC2CC2)nnc1-c1cccc(OC)c1 | inactive: -2.71% | – |
| O=C(C1CCN(Cc2ccccc2)CC1)N1CCN(C/C=C/c2ccccc2)CC1 | inactive: -3.09% | – |
| CCOc1ccc(NC(=O)N2CCC(n3nnc4ccccc43)CC2)cc1 | inactive: -0.0668% | – |

| SMILES | growth rescue (activation) | Potency |
| --- | --- | --- |
| COc1cc(CN2C[C@@H](CO)O[C@@H](n3cnc4c(NC5CCC5)ncnc43)C2)cc(OC)c1OC | inactive: 1.42% | – |
| N#CCCN(C(=O)COc1ccc(C#N)cc1)c1ccc(F)cc1 | inactive: 13.5% | – |
| O=C(N/N=C/C(Br)=C/c1ccccc1)C(O)c1ccccc1 (stereo not given) | inactive: 28.8% | – |
| Cc1ccccc1S(=O)(=O)NC(=O)C1(C)CCN1C(=O)c1cccc2ccccc12 (stereo not given) | inactive: 16.9% | – |
| O=C(CSc1nc(-c2ccc(F)cc2)nc2c1Cc1ccccc1O2)Nc1cccc(C(=O)O)c1 | – | inactive |
| CCOC(=O)C1=C(C(F)(F)F)Nc2ncnn2C1c1cc(OC)ccc1OC (stereo not given) | inactive: 6.4% | – |
| COc1ccc(NC(=O)CCSc2ccc(C)cc2)cc1S(=O)(=O)Nc1ccccc1Cl | inactive: -13% | – |
| C=CCn1c(SCC(=O)NC2CC2)nc2sc(CC)cc2c1=O | inactive: 5.57% | – |
| O=c1cnnc(Nc2ccc(Cl)c(C(F)(F)F)c2)[nH]1 | inactive: -10.6% | – |
| O=C(O)c1ccc(C2SCC(=O)N2Cc2ccco2)cc1 (stereo not given) | inactive: 0.36% | – |
| CCCCNC(=O)C1(C)CCCCN1C(=O)c1cc(OC)ccc1Br (stereo not given) | inactive: -1.36% | – |
| Cc1ccccc1NC(=O)c1cccc(S(=O)(=O)N2CCCCC2)c1 | inactive: 21.2% | – |
| Cc1ccc(NC2CCCN(C(=O)c3cn4cccc(C)c4n3)C2)cc1C (stereo not given) | inactive: -2.17% | – |
| COc1ccc(C(C(O)C(=O)c2c[nH]c3ccccc23)N2CCN(c3ccccc3)CC2)cc1 (stereo not given) | inactive: 13.1% | – |
| O=C(CNC(=S)NC(=O)c1ccccc1)c1ccccc1 | inactive: 24.2% | – |
| O=C1C2CC=CCC2C(=O)N1c1ccc(NCCc2ccccc2)c([N+](=O)[O-])c1 (stereo not given) | inactive: -24.9% | – |
| CCNc1nc(OC)nc(Oc2ccc(=O)n(-c3ccccc3)n2)n1 | inactive: 26.4% | – |
| CC(=O)Nc1ccc(OCCOc2ccc(/C=C3\C(=N)N4N=C(C)SC4=NC3=O)cc2)cc1 | inactive: -2.22% | – |
| CCOc1ccc(NC(=O)C2CC(C)=C(C)CC2C(=O)O)cc1 (stereo not given) | inactive: 7.92% | – |
| Cc1ccc(C(=O)NNC(=O)C2CCN(c3ncccn3)CC2)cc1 | inactive: 2.69% | – |
| CCCn1c(SCC(=O)Nc2ccc3c(c2)OCCO3)n[nH]c1=O | inactive: -0.0874% | – |
| CCN(Cc1ccccc1)C(=O)CSc1nncn1C | inactive: 6.44% | – |
| Cc1ccc(NC(=O)COc2ncnc3c(Cl)cc(Cl)cc23)cc1[N+](=O)[O-] | inactive: -0.828% | – |
| O=S(=O)(/N=C(/c1ccccc1)N1CCOCC1)c1ccc(F)cc1 | inactive: -12.2% | – |
